Laboratory results published in PMC12136788.
The list shows a part of the results.

T1: UNK ZnF1-3 (human, UniProt Q9C0B0 31-174)
T1 sequence: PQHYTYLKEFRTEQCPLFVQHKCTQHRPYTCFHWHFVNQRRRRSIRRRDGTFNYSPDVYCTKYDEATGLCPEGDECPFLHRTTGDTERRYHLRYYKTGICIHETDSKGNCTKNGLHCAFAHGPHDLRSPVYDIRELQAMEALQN

B1: chr9:88635815:88635816:+_ENSG00000135040_ENST00000361671|hu_hu|motif|central (ssRNA)
RNA: GGGAGUUCUACAGUCCGACGAUCUCCUCCUGCCAAUAACUUCAUAACCACAAAGUUGGGUUUGGCAACCUUUAAAAUUCGGUUAACCUCAUGGUCCGGGUUAGGAAUAUUUUCCAAUAUCAUUUUUGCCUGUUGAAAGUGCUUCAACAGAGGAUUGAGCAUCA
B2: chr7:23387248:23387249:-_ENSG00000136231_ENST00000258729|hu_hu|FALSE|FALSE (ssRNA)
RNA: GGGAGUUCUACAGUCCGACGAUCAAUCUUCAAGGGGAUCUCUUCUGUGAAUUUUAUAUCUUGAGCUUCCUUAUGCAUAAUCUCCAGAAUAGACUUACAAGCCGCAGAGGUGCCUUCAGGAGUAGAGAGGAUAGUAAUCGACUUCAACAGAGGAUUGAGCAUCA
B3: chr11:100581416:100581417:-_ENSMUSG00000019173_ENSMUST00000107364|mus_mus|motif|central (ssRNA)
RNA: GGGAGUUCUACAGUCCGACGAUCCCCGCCAUGGCGCGCUGCUCUGUAGUAGUACCAGUGAGCGUGGGGGUGGGGCCGGUGCGGUGCAAAGAGGCACUUAAUGGGAAGGGAGGCCUCCAACGCGGCUCCGGGCAGCAGCGUUACCAACAGAGGAUUGAGCAUCA
B4: chr6:142724167:142724168:+_ENSMUSG00000030282_ENSMUST00000032419|mus_hu|FALSE|FALSE (ssRNA)
RNA: GGGAGUUCUACAGUCCGACGAUCUACACACUGUCCCCAGAUAAAUAAAAUCCCAACAUCUUUGAAAGCACACAAACACACAGUUUUACAGGGUACAAUACAAAGUGAACUUUGAUGAUGUUCUUACUUGCAUUUACUAAAAAUCAACAGAGGAUUGAGCAUCA
B5: chr11:97022710:97022711:-_ENSMUSG00000001440_ENSMUST00000001479|mus_hu|FALSE|FALSE (ssRNA)
RNA: GGGAGUUCUACAGUCCGACGAUCACACUUCUAAAAAAAUAUUCAAGUGUGUGACCAGGGGACGUUUGACACCAUUUUAUUAACCUUCAACUUCAGUGGAAAAAUAAAACCUUUUCCAAGUGCCAUUUUCAUCACAAGACUUCUCAACAGAGGAUUGAGCAUCA
B6: chr19:5156467:5156468:-_ENSMUSG00000024855_ENSMUST00000025786|mus_mus|motif|central (ssRNA)
RNA: GGGAGUUCUACAGUCCGACGAUCUUUUAUUUCUGCCACUGGCACAGAGACAUCCUUCACAUUGCUGUGCAGGCCAAGUACGGAAGCGCCCUCAUUAGGGUGUUGCAUCACCUCUGCCAUGUUGAUGAGUCCCACAGCUAAGGUCAACAGAGGAUUGAGCAUCA
B7: 52862007_52862127_5684_CDS_ENSMUSG00000035247_ENSMUST00000042052|mouse|control|control (ssRNA)
RNA: GGGAGUUCUACAGUCCGACGAUCAGGAAUUUCUAGGUCAGUUGUCUGCUGGACAUUGGUACGACCAGGUCUAGGAUCAAAAGCAGGGACCAGUGCAGAAAACUGGCGCUUUAGCACAUAGUCGUCAUCCCAGGCUCUGCGGCGCAACAGAGGAUUGAGCAUCA
B8: chr1:52222005:52222006:-_ENSMUSG00000026103_ENSMUST00000114513|mus_mus|motif|central (ssRNA)
RNA: GGGAGUUCUACAGUCCGACGAUCACCAACAGUUAGGCAGUAGAGGAAGAGAAGAUACUCAGGGCCUCCCACAAAGGGGUGCGGUCUUGAUGCAGACAUUUGACAGCAGGAUUCAAAGUAAGUGUUAUUUGUAGCUUUUCCUAACAACAGAGGAUUGAGCAUCA
B9: chr9:7834011:7834012:-_ENSMUSG00000057367_ENSMUST00000074246|mus_hu|FALSE|FALSE (ssRNA)
RNA: GGGAGUUCUACAGUCCGACGAUCUGCAUAACUGUAGGGGUUAGUCCUCGAUGAAGAGAUGUCUUCAACUGCUCUAGAAUUAAGAGGGUUUGGAGAAAGGCUGGAGUAAGAACCACUGAACAAGCUACUAUGUUCCAAGGUGGGCAACAGAGGAUUGAGCAUCA
B10: chr1:27861377:27861378:-_ENSG00000126705_ENST00000374011|hu_hu|FALSE|FALSE (ssRNA)
RNA: GGGAGUUCUACAGUCCGACGAUCGGUCUGCAGGGGGUGUAGGGGGCAGGGUGGGAGGCAGAGGGGCAGGAGCUCCUGCCAGAGGACGAUGUGGACGCUGGGAGGGAUCUUGGCGUUGGUUUUCUGAAAGCCAGGAACAAAACCCAACAGAGGAUUGAGCAUCA
B11: 75141830_75143030_377_3pUTR_ENSMUSG00000021996_ENSMUST00000022573|mouse|control|control (ssRNA)
RNA: GGGAGUUCUACAGUCCGACGAUCGGAAGCUCCUCGGUGACGUAAGAGUACAUUCUGUAGUUAGCUUUCCAAGGAUCUUCAGUGGCAUUCACAUAAAACCCAGCACCAGUGCCGAAGUCCCAGCUGUCAUCUUCUCCUUUGAUACAACAGAGGAUUGAGCAUCA
B12: chr14:76904430:76904431:+_ENSMUSG00000022010_ENSMUST00000022587|mus_mus|mus_mus_mus_hu_True|28_78 (ssRNA)
RNA: GGGAGUUCUACAGUCCGACGAUCUGCAGCCAAAAACACCCUCGUGGAAAAAAAGAGCAAGCUCCAGCAGCCUUGUAUAAGCUAGAUAAAAUCUUCUGGCUUUCCGCAGCUCAGGGCGAAACAGAAAACGGCAGCCCUAAUUUACAACAGAGGAUUGAGCAUCA
B13: chr4:63681588:63681589:-_ENSMUSG00000028364_ENSMUST00000107372|mus_mus|FALSE|FALSE (ssRNA)
RNA: GGGAGUUCUACAGUCCGACGAUCGCUUGUGCCUGAUGAUUUUCUUGAGGACCCCACCUUCGGGAGUGAGGGCAAACAAAGCUAGAAAGAUGCCUGGCAGUAGCCAGGUCACGGCCCCCAUGGUGGAGGUUGGACUGGCUAGGUCAACAGAGGAUUGAGCAUCA
B14: 97538318_97538526_2474_CDS_ENSMUSG00000038437_ENSMUST00000044730|mouse|control|control (ssRNA)
RNA: GGGAGUUCUACAGUCCGACGAUCGUCCAGGCCGAGGCUGUUCUUCCCGGGAGGGCUCUUGCUGACGCUCAGGGAGUCACUGCUGCCAGCUUGAGGAAGCAGUCCAUAGGGCCCUGGGAUGGGGCCGUUAGUGGCCGGCAGGGCCAACAGAGGAUUGAGCAUCA

target: T1, UNK ZnF1-3; experiment: nsRBNS (natural sequence RNA bind-n-seq); RBNS binding buffer (assumed for nsRBNS): 25 mM Tris pH 7.5, 150 mM KCl, 3 mM MgCl2, 0.01% Triton X-100, 500 ug/ml BSA, 20 U/ml SUPERase-In, 4 C; UNK is unkempt and MSI1 is Musashi-1; names of the RNAs are library labels; protein concentration not given here; high values mean tight binding

Row | Binder | binding signal
1 | B1 | 0.992 enrichment R
2 | B2 | 1.09 enrichment R
3 | B3 | 1.28 enrichment R
4 | B4 | 1.43 enrichment R
5 | B5 | 1.05 enrichment R
6 | B6 | 0.826 enrichment R
7 | B7 | 0.911 enrichment R
8 | B8 | 1.16 enrichment R
9 | B9 | 1.56 enrichment R
10 | B10 | 2.07 enrichment R
11 | B11 | 1.06 enrichment R
12 | B12 | 1.68 enrichment R
13 | B13 | 0.888 enrichment R
14 | B14 | 1.32 enrichment R
